Data: ChEMBL document CHEMBL1201862, “PubChem BioAssay data set” (2004)
Several values for one entry are separate records, joined by “and”; a condition that tells them apart may be missing. Equal values may be shown once.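 Compound exposure: 48 hours, 5 concentrations, 96-well plates. GI50: concentration for 50% inhibition of growth.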 Activity calls are given as the source filed them. Rule as the data show it: active = GI50 up to about 1.1 µM and inactive = higher.

The compounds below were run on NCI-H322M (assay: NCI-60 cell line screen, 48 h).

| SMILES | GI50 |
| --- | --- |
| OC(CBr)C(O)C(O)C(O)CBr (stereo not drawn) | inactive: > 100 µM and inactive: > 80.2 µM |
| CC(C)CCCCCCCCCCCCC(=O)NCC(=O)NC1C(O)C(O)C(Nc2[nH]cnc3ncnc2-3)OC1C(O)CO (stereo not drawn) | active: 0.00169 µM |
| CCC1(CC)C(=O)NC(=O)NC1=S | inactive: > 100 µM |
| COC(=O)C1=C(C(=O)OC)C2OC1c1cc3ccccc3cc12 | inactive: 19.4 µM |
| COC(=O)C1(C)CCCC2(C)c3cc(OC)ccc3C(=O)C(Br)C12 (stereo not drawn) | inactive: > 10 µM |
| Cc1ccc(/C=c2\c(=O)[nH]c3nc4ccccc4c(=O)n23)cc1 | inactive: 49.1 µM |
| O=C1NC(NCc2ccc(F)cc2)=N/C1=C\c1ccccc1Cl | inactive: 16.2 µM |
| N#CC1C(=O)NC(=O)C1=O (stereo not drawn) | inactive: > 100 µM |
| CCOC(=O)c1c(C)nc2c3ccccc3c(C#N)c(C)n12 | inactive: > 100 µM |
| CC(=O)/C(=C\c1cccc([N+](=O)[O-])c1)C(=O)Nc1ccccc1C | inactive: > 100 µM |
| COC(=O)C(C(=O)C(=O)Nc1ccc([N+](=O)[O-])cc1)c1nc2ccc([N+](=O)[O-])cc2nc1O (stereo not drawn) | inactive: > 100 µM |
| CCOc1ccc(/N=N/c2ccc(-c3ccc(/N=N/c4c(O)ccc5cc(S(=O)(=O)O)cc(S(=O)(=O)O)c45)cc3)cc2)cc1 | inactive: > 100 µM |
| COCCOC(=O)C1=C(O)c2ccccc2S(=O)(=O)N1C | inactive: > 100 µM |
| COc1ccc(-c2c(C3=NCCCN3)nnn2-c2ccccc2)cc1 | inactive: > 100 µM |
| O=C1CSC2(CC(/C=C/c3cccc(Br)c3)=NN2c2cccc(S(=O)(=O)O)c2)N1c1nc2ccccc2s1 (stereo not drawn) | inactive: > 100 µM |
| CCOC(=O)C1=c2[nH]c3cccc4cccc(c43)n2C=C(C(C)=O)C1CC(C)=O (stereo not drawn) | inactive: > 100 µM |
| NC(=O)c1nnsc1N/N=C/c1ccc([N+](=O)[O-])cc1 | inactive: 94 µM |
| CCCNc1c(Cl)cc(Cl)c2[nH]c3ccccc3c(=O)c12 | inactive: 83.6 µM |
| CN(C)C(=O)Oc1ccc(C(=S)Nc2ccccc2)cc1 | inactive: > 100 µM |
| COc1nc2c(c(=O)n1C)N[C@@H]1[C@@H](O)[C@H](O)CO[C@@H]1N2 | inactive: > 100 µM |
| O=[N+]([O-])c1cccc(C2=NOC3C4CCC(C4)C23)c1 (stereo not drawn) | inactive: > 100 µM |

| SMILES | GI50 |
| --- | --- |
| Cc1ccc(C2=NN=C3C(c4ccccc4)=Nc4ccccc4N3C2)cc1 | inactive: 20.7 µM |
| CN(C)CCNC(=O)c1ccc2ccc3cccnc3c2n1 | inactive: 9.51 µM |
| COc1ccc(N2C(=O)CSC2c2cc(OC)c(OC)c(OC)c2)cc1 (stereo not drawn) | inactive: 25.1 µM |
| C=CCOC(=O)N1c2ccc(O[Si](C)(C)C(C)(C)C)cc2[C@@]23O[C@@]24[C@@H]1C#C/C=C\C#C[C@]3(O)C(OC)(OC)C[C@@H]4C | inactive: > 100 µM |
| CCOC(=O)Cn1c2ccccc2c(=O)c2cc(C)c(C)c(C#N)c21 | inactive: > 100 µM |
| CCc1cc2c(Nc3ccccc3)c3c(nc2s1)CCCC3 | inactive: > 100 µM |
| O=c1c(Nc2ccccc2)cn(CCOc2ccccc2)c(=O)n1CCOc1ccccc1 | inactive: > 100 µM |
| Cn1c2c(c3ccccc31)CCN(CCCCN1CCc3c(n(C)c4ccccc34)C1=O)C2 | inactive: > 100 µM |
| CCc1n[nH]c(=O)n1/N=C/c1ccc(C)cc1 | inactive: 64 µM |
| CCC(C)(O)c1cn(-c2ccc(Cl)cc2)nn1 (stereo not drawn) | inactive: > 100 µM |
| Cc1ccc(NC(=O)c2cc(S(=O)(=O)Nc3n[nH]c(=O)[nH]3)c(SSc3cc(Cl)c(C(=O)Nc4ccc(C)cc4)cc3S(=O)(=O)Nc3n[nH]c(=O)[nH]3)cc2Cl)cc1 | inactive: > 100 µM |
| O=[N+]([O-])c1cccc(/C=N\NS(=O)(=O)c2ccc(Cl)cc2)c1O | inactive: > 100 µM |
| NC(=S)N/N=C/c1cn(CCCl)c2ccccc12 | inactive: 63.8 µM |
| CC(C)(C)OC(=O)NC(Cc1ccccc1)NC(=O)NC(=O)OCc1ccccc1 (stereo not drawn) | inactive: 32.7 µM |
| CN(C)c1ccc(/C=C(\NC(=O)c2ccccc2)c2nc3cncnc3[nH]2)cc1 | inactive: > 100 µM |
| COC(=O)c1c/c(=N\NC(=O)CC(=O)Nc2ccccc2OC)c2ccccc2o1 | inactive: > 100 µM |
| CCCC1C(=O)Nc2cccc3ncn(c23)C1=O (stereo not drawn) | inactive: > 100 µM |
| C#CC1(O)CCC2[C@@H]3CCc4cc(Oc5nc(F)nc(-c6c(C)c(C(=O)OCC)n7ccccc67)n5)ccc4C3CC[C@@]21C (stereo partly drawn) | inactive: > 100 µM |
| COC1C(O)CC(OC2CC(OC3CC(O[C@@H]4C(=O)c5c(cc6cc(OC7CC(OC8CC(O)C(O)C(C)O8)C(O)C(C)O7)c(C)c(O)c6c5O)C[C@H]4[C@H](OC)C(=O)[C@@H](O)[C@@H](C)O)OC(C)C3O)OC(C)C2O)OC1C (stereo partly drawn) | active: < 0.0135 µM |
| O=[N+]([O-])/C(C(Cl)=C(Cl)Cl)=C(\Nc1cccc2ccccc12)Sc1ccccc1 | inactive: 19.8 µM |
| NC1=C(N2CCCCC2)C(=O)NC2=N/C(=C\c3ccccc3)C(=O)N21 | inactive: > 100 µM |

| SMILES | GI50 |
| --- | --- |
| O=[N+]([O-])c1ccc(C2NC(=S)NC3c4cc([N+](=O)[O-])ccc4CCCC23)cc1 (stereo not drawn) | inactive: > 100 µM |
| N=C1OC(c2cccc(Cl)c2)C(NNS(=O)(=O)c2ccccc2)=C1O (stereo not drawn) | inactive: > 100 µM |
| Oc1nc2cc(Cl)ccc2nc1/C(=N\Nc1ccccc1)C(O)c1ccc2c(c1)OCO2 (stereo not drawn) | inactive: > 100 µM |
| Cc1nc2cc3ccccc3cc2[nH]c1=O | inactive: > 100 µM |
| OC(c1ccc(F)cc1)C(F)(F)c1nc(-c2ccccc2)no1 (stereo not drawn) | inactive: 49.8 µM |
| COC(=O)/C=C1/SC(/C(=C(/[O-])OC)[n+]2ccc3ccccc3c2)=NC1=O | inactive: > 100 µM |
| O=P(O)(O)C(N=C(Nc1ccccc1)Nc1ccccc1)P(=O)(O)O | inactive: > 100 µM |
| COc1ccc(C(c2ccc(OC)cc2)N2C(=O)CCC2C(=O)O)cc1 (stereo not drawn) | inactive: > 100 µM |
| COc1ccc(C)cc1N1C(=O)C2ON(Cc3ccc(CC(N)=O)cc3)C(c3c4ccccc4c(Cl)c4ccccc34)C2C1=O (stereo not drawn) | inactive: 41.2 µM |
| CCCCc1c2c(nc3c1CCc1cc4c(nc1-3)-c1nc3c(c(CCCC)c1CC4)CCC/C3=C\c1ccccc1)/C(=C/c1ccccc1)CCC2 | inactive: 75.2 µM |
| Fc1cccc2c1cc1ccc3cccc4ccc2c1c34 | inactive: > 100 µM |
| C=CC1(c2ccc(-c3ccccc3)cc2)OCCO1 | inactive: 30.8 µM |
| COc1ccc(NC(=O)C2C(=O)N(c3ccc(OC)cc3)C(=O)/C2=N/O)cc1 (stereo not drawn) | inactive: 25.8 µM |
| COc1ccc2oc3c4c2c1CCC4CCC3=O (stereo not drawn) | inactive: > 100 µM |
| CS(=O)(=O)c1ccc(NNc2cc(=O)[nH]c(=O)[nH]2)cc1 | inactive: > 100 µM |
| COC(=O)C(=O)C(C(=O)OC)C(=O)C(=O)Nc1c(Cl)cc([N+](=O)[O-])cc1Cl (stereo not drawn) | inactive: 50.5 µM |
| COC(=O)C1=C(C)NC(CF)=C(C(=O)OC)C1c1cccc2c(=O)c3ccccc3oc12 (stereo not drawn) | inactive: 13.9 µM |
| C/C=C/[C@H]1O[C@@](OC)([C@@H](C)[C@H](O)[C@H](C)[C@H]2OC(=O)/C(OC)=C/C(C)=C/[C@@H](C)[C@@H](O)[C@@H](C)[C@@H](O)[C@H](C)C/C(C)=C/C=C/[C@@H]2OC)CC(OC2CC(O)C(OC(N)=O)C(C)O2)[C@@H]1C (stereo partly drawn) | inactive: 6.24 µM |
| COC(=O)C(C(=O)C(=O)Nc1ccccc1C)c1nc2ccc([N+](=O)[O-])cc2nc1O (stereo not drawn) | inactive: > 100 µM |
| O=C1Cc2nc(CO)c(CO)c(CO)c2CO1 | inactive: > 100 µM |
| CC1OC(n2ccc(=O)[nH]c2=O)C=C(OC(=O)c2ccccc2)C1=O (stereo not drawn) | inactive: > 100 µM |

| SMILES | GI50 |
| --- | --- |
| COc1cc(S(=O)(=O)Nc2nc(-c3ccc(N4C(=O)/C(=C/c5ccccc5[N+](=O)[O-])N=C4c4ccccc4)cc3)cs2)ccc1Cl | inactive: 95.1 µM |
| O=C(CC(O)(C(F)(F)F)C(F)(F)Cl)CC(O)(C(F)(F)F)C(F)(F)Cl (stereo not drawn) | inactive: 2.66 µM |
| Cc1c(-c2c(C)c3ccccc3n2S(=O)(=O)c2ccccc2)n(S(=O)(=O)c2ccccc2)c2ccccc12 | inactive: > 32.9 µM |
| N#Cc1nc(/C=C/c2nc(C#N)c(N)o2)oc1N | inactive: > 10 µM |
| Cc1ccc(C2=C(c3ccccc3)C(O)(c3ccccc3)C(c3ccccc3)=C2c2ccc(C)cc2)cc1 | inactive: > 100 µM |
| CC(C)(C=O)CC(C#N)/C(=N\NC(N)=O)C(=O)Nc1ccccc1C(N)=O (stereo not drawn) | inactive: > 100 µM |
| COC(=O)c1ccc(/C=C/c2cc(O)ccc2O)cc1 | inactive: 8.09 µM |
| CCCCCCCCCCCC(=O)OCC1OC(n2cc(F)c(=O)[nH]c2=O)C(NC(=O)OCc2ccccc2)C(OC(=O)CCCCCCCCCCC)C1O (stereo not drawn) | inactive: > 100 µM |
| COc1ccc2c(c1)C(=O)C1(C2)[C@H](c2ccccc2)C2C(=O)c3cc(OC)ccc3C2[C@H]1c1ccccc1 (stereo partly drawn) | inactive: > 100 µM |
| Cc1ccc2[nH]c3c(c2c1)C1CCC(C(C)(C)C)CC1C1C(=O)N(c2ccc(Oc4ccccc4)cc2)C(=O)C31 (stereo not drawn) | inactive: > 74.3 µM |
| COc1ccc2c(c1)O[C@@H]1c3ccc(OC)cc3OC[C@H]21 | inactive: > 100 µM |
| CCCCCCCCCCCCCCCCOP(=O)(O)OP(=O)(O)OCC1OC(n2cnc3c(N)ncnc32)C(O)C1O (stereo not drawn) | inactive: > 100 µM |
| C=C1C(C[C@@H]2O[C@H]3C[C@H]4O[C@@]5(C[C@@H]6O[C@]7(C[C@H](C)[C@@H]8O[C@@H]9CC(C(O)CO)O[C@@H]9C[C@@H]8O7)C[C@H](C)[C@@H]6O5)C[C@H]4O[C@H]3[C@H](C)[C@H]2O)O[C@@H](CC[C@@H]2O[C@@H](CC[C@@]34CC5O[C@H]6C(O[C@H]7CC[C@H](CC(=O)OC)O[C@@H]7[C@@H]6O3)[C@H]5O4)CC2=C)C[C@H]1C (stereo partly drawn) | active: 0.000273 µM |
| Nc1nnc(O)c2c1c(I)cn2C1OC(CO)C(O)C1O (stereo not drawn) | inactive: 2.29 µM |
| Nc1nc(OCC2CCCCC2)c2nc[nH]c2n1 | inactive: 21.2 µM |
| COc1cccc(-c2cc(O)c3cc4c(cc3n2)OCO4)c1 | inactive: 3.03 µM |
| Cc1ccc(S(=O)(=O)NC(=O)NCCc2c[nH]cn2)cc1 | inactive: > 100 µM |
| COc1cc2c(SCCN(C)C)nc3ccccc3c2c2ccccc12 | inactive: 1.65 µM |
| c1csc(-c2nccc3c2[nH]c2ccccc23)c1 | inactive: 31.7 µM |
| COc1ccc(/C=C\c2cc(OC)c(OC)c(OC)c2)cc1 | active: 0.000443 µM |
